# Measured values taken from PubChem BioAssay (NCI).
# “And” between values parts separate entries of the source, which are not always exact repeats. Equal values may be shown once.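 Growth conditions: 96-well plates. Treatment: test compound, 48 hours, 5 concentrations. Analysis: linear interpolation between bracketing concentrations; unreached endpoints set to highest concentration. Abbreviation: GI50, concentration required for 50% inhibition of growth. TGI is the concentration that stops growth completely.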
# System: NCI-H322M lung
# Experiment: NCI anticancer screen, dose series, 48 h
SMILES,TGI,GI50
O=C(c1ccsc1)c1cc2c(s1)C(=O)c1ccsc1C2=O,0.979 µM,
CCOC(=O)c1ccc(-c2cccs2)n1C,> 100 µM,
Cc1ccc(NC(=O)C2C(=O)C(=O)N(c3ccc(C)cc3)C2=O)cc1 (stereo not given),> 100 µM,
CC(C)c1ccc2c(c1)[C@@]1(C)CC[C@H](C)C(C)(C)C1CC2 (stereo not given in full),32.1 µM,
COc1cccc(/C=N/[N-]C(N)=O)c1[O-].[Cu+2].[OH3+].c1cnc2c(c1)ccc1cccnc12,35.4 µM,
COC(=O)c1c2c(c[n+]([O-])c1C)C(=O)C(NCc1ccccc1)=CC2=O,1.59 µM,0.577 µM
CCN(CC)CCC(CNc1c2ccc([N+](=O)[O-])cc2nc2cc(OC)c(OC)cc12)c1ccccc1 (stereo not given),0.607 µM and 0.648 µM,0.13 µM and 0.113 µM
Cc1cc(N2CCOCC2)nc(N(CCCNc2ccnc3cc(Cl)ccc23)Cc2ccc3c(c2)OCO3)n1,5.91 µM,1.9 µM
NC1=NN(c2ccccc2)C(=O)C1C(=O)C(=O)NC1C2CC3CC(C2)CC1C3 (stereo not given),> 100 µM,
C[C@]1(O)CC(=O)c2c(c(-c3ccc4cc5c(c(O)c4c3O)C(=O)C[C@@](C)(O)C5)c3cccc(O)c3c2O)C1,26.6 µM,
CC(C)(C)C1CCC2c3c([nH]c4ccccc34)C3C(=O)N(c4cccc(Cl)c4)C(=O)C3C2C1 (stereo not given),64.2 µM,
O=[N+]([O-])c1nccn1CCCN=c1c2ccccc2n(O)c2ccccc12,> 100 µM,
CSc1sc(C)cc1-c1nsc(=O)o1,> 100 µM,
CC(/C=C/C=C/C=C/C=C/C=C/C(O)=C1/C(=O)C(CCC(=O)O)N(C)C1=O)=C\C(C)C(OC1CC(O)C(O)C(C)O1)C(C)C (stereo not given),6.24 µM,
COC(=N)C(C)C,> 100 µM,
O=c1oc2ccccc2c(-c2ccc(O)cc2)c1Oc1ccc(Cl)cc1,> 100 µM,
C[CH2][Sn]1([CH2]C)[O]C2C(O)OC(CO)C(O)C2[O]1 (stereo not given),> 100 µM,> 100 µM
COC(=O)C1=C2C3=C(C(=O)c4ccccc4C3=O)N(Cc3ccccc3)C2(OC(C)=O)C=CC1=O (stereo not given),36.6 µM,9.9 µM
C[C@@]12C[C@@H](c3ccccc3O1)N1CCSC1=N2,> 100 µM,
CCc1ccc(/C(C#N)=C/C=C/c2ccccc2)cc1,> 100 µM,27.6 µM
CC(=O)NC(ON1C(=O)COc2ccccc21)C(Cl)(Cl)Cl (stereo not given),> 100 µM,

SMILES,TGI,GI50
COC(=O)C(=C\Sc1ccccc1)/C=C/C(=O)OC(C)(C)C,33.7 µM,
CNC(=O)c1cc(Oc2ccc3nc(NC(=O)c4cc(C(F)(F)F)cc(C(F)(F)F)c4)sc3c2)ccn1,19.8 µM,3.7 µM
O=C(O)c1cnccc1-c1cc(=O)[nH]n1-c1ccccc1,> 100 µM,
COc1cc(C2=Nc3c/c(=C\c4c(O)[nH]c5ccc(Cl)cc45)ccc3=N2)cc(OC)c1OC,26 µM,5.4 µM
CC(C)(C)OC(=O)N1C(C2=COc3ccccc3O2)=COc2cccnc21,4.62 µM,
CC1=C(C)C(=O)c2c(cc3c4ccccc4ccn23)C1=O,> 100 µM,
C/C=C1/CN2CCC34C5=CC(=O)C(c6cc7c(cc6OC)N(C)C6=C(C(=O)OC)CC8(CC)CCCN9CCC67C98)=CC5=NC23CCC1C4C(=O)OC (stereo not given),31.8 µM,
Cc1ccc2c(=O)c(-c3nnsn3)c[nH]c2n1,> 100 µM,
O=C1OC(C2Cc3cc4c(cc3C2=O)CCC4)c2ccccc21 (stereo not given),> 100 µM,
C=CC1(c2ccc(Cl)c(Cl)c2)OCCO1,> 100 µM,
Oc1c(Cl)ccc2cccnc12,> 100 µM,
CC(C)N(CCCNc1c2ccccc2nc2cccc([N+](=O)[O-])c12)C(C)C,15.4 µM,
COC(=O)/C=C1/OC(c2ccc(Br)cc2)=C(Br)C1=O,28.9 µM,
CC(=O)Oc1ccn2nc(C)c(Cc3c(C)nn4ccc(OC(C)=O)cc34)c2c1,> 100 µM,
O=C1CCCCC1C1(O)C(=O)Nc2cc(F)ccc21 (stereo not given),> 100 µM,
COc1ccc(Cc2cc(OC)c(OC)c(OC)c2)cc1O,> 100 µM,
Brc1ccc(-c2ccc(-c3ccc(-c4ccc(Br)s4)s3)s2)s1,> 100 µM,
CN(C)c1cc2c(cc1Sc1nc3c(N)nccc3n1CCNCC(C)(C)C)OCO2,> 100 µM,2.29 µM
CCOC(=O)C(=CNC(Cc1c[nH]c2ccccc12)C(=O)OC)C(=O)OCC (stereo not given),> 100 µM,
COc1ccccc1/C=C1\CCC(CN(C)C)C1=O (stereo not given),31.4 µM,
